Molecules are shown by their SMILES. The whole screen tested about 48,000 compounds, of which about 450 (0.94%) were called active. Roughly 19% stayed inconclusive and do not appear here. Calls follow the shape of the dose curve; as a rule, active = well fitted inhibition curve with a large enough effect; inconclusive = small, poorly fitted or top-dose-only effect; inactive = no such curve, though single readings can be large or run the other way. This is one part of the list.
Potency is read from the fitted curve at half-maximal effect.

The assay is described as follows: Primary qHTS for Identification of Small Molecule Inhibitors of Huntingtin Promoter Activity. Also: nearly all actives have a fitted effect of over 50% in size. The following applies: HEK293 HTT promoter firefly luciferase reporter (activity 0% = vehicle and -100% = no light), 24 h; series mostly up to 57.5 µM; activity change, negative = inhibition: at the top concentration. Put shortly: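 HEK293 Fluc reporter, 2,500 cells/well, 24 h pre-culture; cpds up to 57.5 uM final, 24 h 37 degrees C; Dual-Glo, 10 min RT; normalized vehicle = 0%, zero RLU = -100%.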
For `COc1cccc(N2CCN(C(=O)c3c(C)oc4ncnc(N5CCOCC5)c34)CC2)c1`, the “activity change, negative = inhibition” value is inactive: -10.7%. Same read-out and setting: the figure for `Cc1c(C(=O)N(C)C)sc2c1c(=O)n(-c1ccc(Cl)c(Cl)c1)c(=O)n2CC(=O)Nc1cccc(C(F)(F)F)c1` is inactive: -0.722%; for `CC(C)c1ccc(NC(=O)CN(C)S(=O)(=O)c2ccc3c(c2)c(=O)n(C)c(=O)n3C)cc1` it is inactive: -19.2%. In the case of `CCOC(=O)Cc1ccc(NC(=O)NCc2ccc3c(c2)CCN3C(=O)CC)cc1`, the “activity change, negative = inhibition” value was inactive: -40%. For the molecule `O=C(CCS(=O)(=O)c1cc(Br)cc2c1N(C(=O)C1CC1)CC2)Nc1ccc(Br)cc1F`, the “activity change, negative = inhibition” value is inactive: -7.73%. The same measure, in the same setting: the result for `CCc1ccccc1N(C)C(=O)Cn1cnc2sc(C)c(S(=O)(=O)N3CCN(c4ncccn4)CC3)c2c1=O` reads inactive: -12%. On to `Cc1ccc(NS(=O)(=O)c2cc(Br)cc3c2N(C(=O)C2CC2)CC3)cc1C`, for which the Potency is active: 5.62 µM. For `COC(=O)c1ccc(Cn2nnc3sc4c(c3c2=O)CCC(C)C4)cc1` (centres undefined), the “activity change, negative = inhibition” value was inactive: 33.2%.

As for `O=C(CCCN1C(=O)C(c2ccccc2)Oc2cccnc21)Nc1ccc(Br)cc1F` (centres undefined), the “activity change, negative = inhibition” value is inactive: -16.3%. Turning to `COc1ccc2c(CNCCc3cccs3)c(C(=O)O)n(Cc3ccccc3)c2c1`, the “activity change, negative = inhibition” value was inactive: -20.6%. Take `CCOc1ccc(CCNC(=O)c2cc3c(=O)[nH]c4ccc(C)cc4c3s2)cc1OCC`: the “activity change, negative = inhibition” value was inactive: -17.1%.

`COc1ccc(-c2nc(SCC(=O)NCCc3ccc(OC)c(OC)c3)n[nH]2)cc1`: the “activity change, negative = inhibition” value was inactive: 13.8%. For the molecule `O=C(NC1CCCc2ccccc21)c1ccc2c(c1)sc1nc(-c3ccc(F)cc3)cn12` (centres undefined), the “activity change, negative = inhibition” value is inactive: 10%.

As to `Cc1ccc(Cl)cc1NC(=O)C1CCC(CNS(=O)(=O)c2cccc3nsnc23)CC1` (centres undefined), the “activity change, negative = inhibition” value was inactive: -9.29%. For `CC(=O)N(Cc1cccnc1)c1nc2c(C)c(C)ccc2s1`, the “activity change, negative = inhibition” value was inactive: -26.7%. For `CCc1ccc2c(c1)NC(c1cccs1)=NC(c1ccc(F)cc1)=N2`, the “activity change, negative = inhibition” value was inactive: 16.1%. The same measure, in the same setting: the result for `O=Cc1ccc(O)c(O)c1O` reads inactive: -8.2%; that for `Cc1ccc2oc3c(c(=O)c2c1)C(c1ccc(F)cc1)N(Cc1ccc2c(c1)OCO2)C3=O` (centres undefined), inactive: -3.91%; that for `CC(=O)c1cccc(NC(=O)c2sc(-n3nc(C)c(Cc4ccc5c(c4)OCO5)c3C)nc2C)c1`, inactive: -19.6%. `COc1ccccc1CCNC(=O)C(=O)NCC(c1ccc2c(c1)OCO2)N1CCOCC1` (centres undefined): the “activity change, negative = inhibition” value is inactive: -28%. On the same count and under the same terms, the figure for `COc1ccccc1OCC(=O)NCC(c1ccc(Cl)cc1)N1CCCCC1` (centres undefined) is inactive: -20.1%; for `COc1cccc(CNC(=O)C(=O)Nc2c3c(nn2-c2ccccc2)CSC3)c1` it is inactive: -25.7%.

For the molecule `CCN(C(=O)C1CCN(S(=O)(=O)c2ccc3c(c2)CCCN3C(C)=O)CC1)c1cccc(C)c1`, the “activity change, negative = inhibition” value is inactive: -22.9%.

On to `CCOC(=O)c1c(NC(C)=O)c2c3c(sc2n1Cc1nc(-c2cccc(Cl)c2)oc1C)CCCC3`, for which the “activity change, negative = inhibition” value is inactive: -12.2%. Take `CCN(CC)C(=O)CSc1nc(-c2ccccc2F)nc2c1Cc1c(CO)cnc(C)c1O2`: the “activity change, negative = inhibition” value was inactive: -23.6%. Same read-out and setting: the figure for `CC(C)(C)OC(=O)N1CCC(c2c(C(=O)N3CCCCC3)cnn2-c2ccc(Cl)cc2)CC1` is inactive: -8.64%; for `COC(=O)c1ccccc1NC(=O)CSc1nc2ccsc2c(=O)n1CCC(C)C` it is inactive: -3.39%; for `CCOc1cc(C(=O)NCCc2csc3nc(-c4ccc(C)cc4)nn23)cc(OCC)c1OCC` it is inactive: -16.4%. As to `COc1ccc(Cc2nc3ccccc3[nH]c2=O)cc1`, the “activity change, negative = inhibition” value is inactive: -10.5%. `C=Cc1ccc(Cn2c(C)c(CNCc3cccc(Br)c3)c(C(=O)O)c2C)cc1`: the “activity change, negative = inhibition” value is inactive: 16.5%. For `Cc1cccc(Cn2c(CNS(=O)(=O)c3ccc4c(c3)CCCC4)nc3cccnc32)c1`, the “activity change, negative = inhibition” value is inactive: -19.8%. As for `C[C@@H]1C[C@H]2[C@@H]3C[C@H](F)C4=CC(=O)C=C[C@]4(C)[C@@]3(F)[C@@H](O)C[C@]2(C)[C@@]1(O)C(=O)CO`, the “activity change, negative = inhibition” value was inactive: 10%.

For the molecule `CCOC(=O)c1c(S(=O)(=O)N2CCCC(C(=O)NCc3ccc(Cl)cc3)C2)c(C)n(C)c1C` (centres undefined), the “activity change, negative = inhibition” value was inactive: -18.2%. For `COc1ccc(F)cc1S(=O)(=O)NCCc1csc2nc(-c3cccc(C)c3)nn12`, the “activity change, negative = inhibition” value is inactive: -5.72%.

With `O=C(c1ccccc1Cl)N1c2ncnn2C2(CCCCC2)[C@@H]2CCCC[C@@H]21`, the “activity change, negative = inhibition” value was inactive: -36.9%. Still for that read-out and setting: the result for `COC(=O)c1ccc(OCC2c3cc(OC)c(OC)cc3CCN2C(=O)COc2ccc(Cl)cc2)cc1` (centres undefined) reads inactive: -26.1%; that for `Cc1cccc(NC(=O)CCS(=O)(=O)c2ccc3c(c2)n(C)c(=O)c(=O)n3C)c1C`, inactive: -0.551%; that for `CCOC(=O)C1CCCN(C(=O)c2nn(-c3ccc(OC)cc3)c(=O)c3c2c2ccccc2n3C)C1` (centres undefined), inactive: -10.9%. Same read-out and setting: the result for `Nc1nc(Nc2ccccc2F)sc1C(=O)c1ccc(Cl)cc1` reads inactive: 79.2%.

As to `Cc1ccc(-n2c(=O)c3c(C)c(C(=O)N(C)C)sc3n(CC(=O)C(C)(C)C)c2=O)cc1C`, the “activity change, negative = inhibition” value is inactive: -0.893%. Consider `Cc1cc2c(cc1CC(=O)c1sccc1S(=O)(=O)Nc1onc(C)c1Cl)OCO2`, for which the “activity change, negative = inhibition” value is inactive: -1.02%.

Consider `CCc1ccc(-n2nc(C)c3c(C)cc(=O)n(CC(=O)N4CCCc5ccccc54)c32)cc1`, for which the “activity change, negative = inhibition” value is inactive: -4.43%. As to `O=c1cc(-c2ccccc2)n2c(SCc3ccccc3)nnc2[nH]1`, the “activity change, negative = inhibition” value was inactive: -6.47%. As to `Cc1c(C(=O)N(Cc2ccccc2F)C2CCS(=O)(=O)C2)oc2ccc(F)cc12` (centres undefined), the “activity change, negative = inhibition” value is inactive: -2.95%. `COc1ccc(N2CC(NC(=O)COc3ccccc3)CC2=O)cc1OC` (centres undefined): the “activity change, negative = inhibition” value is inactive: -8.06%.

Consider `Cn1c(=O)c2c(SCC(=O)NCc3ccco3)nc(-c3ccccc3)nc2n(C)c1=O`, for which the “activity change, negative = inhibition” value is inactive: -2.91%.

On to `CCc1ccc(-n2nc3cc(C)c(NC(=O)c4cccc5ccccc45)cc3n2)cc1`, for which the “activity change, negative = inhibition” value is inactive: -5.27%. For `O=C(O)Cc1ccc(-c2ccccc2)cc1`, the “activity change, negative = inhibition” value is inactive: 11.2%. Same read-out and setting: the figure for `Cc1ccc(-n2nc(CO)c(C(=O)NCc3ccccn3)n2)cc1C` is inactive: 2.45%; for `CC1CCn2c(nc3cc(C(=O)NCCc4ccc(Cl)cc4)ccc32)C1` (centres undefined) it is inactive: -6.49%. Take `CC(C)CN(CCCNC(=O)Cn1ncc2c3ccccc3n(C)c2c1=O)CC(C)C`: the “activity change, negative = inhibition” value was inactive: -2.14%. Turning to `CCOC(=O)c1ccc(NC(=O)Nc2c[nH]c(=O)[nH]c2=O)cc1`, the “activity change, negative = inhibition” value is inactive: 8.83%.

`Cc1cc(C)cc(NC(=O)CCS(=O)(=O)c2cc3c4c(c2)CCN4C(=O)CC3)c1`: the “activity change, negative = inhibition” value was inactive: -21%. Still for that read-out and setting: the figure for `O=C(NC1(C(F)(F)F)C(=O)Nc2c1c(=O)[nH]c(=O)n2CCc1ccccc1)c1ccc(Cl)cc1Cl` (centres undefined) is inactive: -4.39%.

With `CCOc1ccccc1NC(=O)C1CCCN(S(=O)(=O)c2c(C)[nH]c(=O)[nH]c2=O)C1` (centres undefined), the “activity change, negative = inhibition” value is inactive: -6.79%. The same measure, in the same setting: the figure for `CCOc1ccc(/C=C(\C#N)c2nc3ccccc3c(=O)[nH]2)cc1OC` is inactive: 4.98%; for `O=C(CSc1nnc(-c2ccccc2)c(-c2ccccc2)n1)NC1CCCCC1` it is inactive: -30.3%. On the same count and under the same terms, the figure for `Cc1ccc(N2CC(NC(=O)Cc3cccs3)CC2=O)cc1C` (centres undefined) is inactive: -17.9%; for `CCOC(=O)N1CCc2c(sc(NCc3cccc(F)c3)c2C(=O)Nc2ccccc2OCC)C1` it is inactive: -12.3%.

These data come from PubChem BioAssay AID1508623 (National Center for Advancing Translational Sciences (NCATS), 2021).
